Results: PubChem BioAssay AID686978 (National Center for Advancing Translational Sciences (NCATS), 2013)
Several values for one entry are separate records, joined by “and”; a condition that tells them apart may be missing. Equal entries are not always repeated. In all, about 420,000 compounds went through this assay and about 64,000 (15%) were called active. The inconclusive results got no clear call from the source; some entries with a clear call stand among them for comparison. Calls come from the whole dose curve; as a rule, active = well fitted inhibition curve with a large enough effect; inconclusive = small, poorly fitted or top-dose-only effect; inactive = flat fitted curve, though single readings scatter. Potencies beside an inconclusive call are fits to weak or partial responses and may not hold up.

Assay: qHTS for Inhibitors of human tyrosyl-DNA phosphodiesterase 1 (TDP1): qHTS in cells in absence of CPT; note: nearly all actives have a fitted effect of over 55% in size
Conditions: DT40 Tdp1-/- hTDP1 cells, no CPT, ATP luminescence, 48 h; activity change, negative = growth inhibition: at 46.2 µM (top of the series) unless noted
Method in brief: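 Growth of hTDP1-complemented DT40 Tdp1-knockout cells is measured by ATP luminescence after at least 48 hr compound exposure at 37 °C, with DMSO substituting for the 20 nM CPT used in the parallel screen.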
% is set by controls: 0 for no effect and ±100 for the full control effect; potency is the fitted concentration of half-maximal effect; tags give direction and shape of the fitted curve.

SMILES	Potency	activity change, negative = growth inhibition
Cc1ccc(S(=O)(=O)c2ccc([N+](=O)[O-])cn2)cc1	active: 0.517 µM	
CN(CC1CCCO1)S(=O)(=O)c1ccc(C(=O)Nc2ccccc2F)cc1 (stereo not drawn)	inconclusive: 29.1 µM [inhibitor, single point]	
COc1ccc(NS(=O)(=O)CC(C)C)c(OC)c1	inactive	
CSCC[C@H](NC(=O)c1ccc(Br)o1)c1nnc2ccccn12	inconclusive: 29.1 µM [inhibitor, single point]	
CC(C)c1onc(C(=O)N2CCN(Cc3ccccc3)CC2)c1[N+](=O)[O-]	inactive	
O=C(c1ccco1)N1CCC2(CCN(Cc3ccccc3)CC2)CC1	inactive	
Cn1nc(C(F)(F)F)c2cc(C(=O)Nc3ccc(F)cc3F)sc21	inactive	
CC(=O)Nc1ccc(/C=C(\C#N)C(=O)NC2CCCCC2C)cc1 (stereo not drawn)	inconclusive: 32.6 µM [inhibitor, partial curve, poor fit]	
COc1cc(/C=N/NC(=O)c2cccc(C(=O)N/N=C/c3ccc(O)c(OC)c3)n2)ccc1O	inactive	
CCOc1ccc(NC(=O)c2sc3nc4n(c(=O)c3c2C)CCC4)cc1	inactive	
Nc1nc2c(s1)CC(c1ccccc1)CC2 (stereo not drawn)	inconclusive: 32.6 µM [inhibitor, single point]	
CCN(CC)S(=O)(=O)c1ccc2c(c1)nc(CCC(=O)OCC(=O)Nc1cc(Cl)cc(Cl)c1)n2C	inactive	
Cc1cccc(NC(=O)CN2C(=O)c3ccccc3C2=O)c1C	inactive	
CCOC(=O)/C(=C/c1c2ccccc2cc2ccccc12)NC(=O)c1ccccc1	inconclusive: 18.4 µM [inhibitor, single point]	
CC1CCc2nc3ccc(S(=O)(=O)N4CCC(C(=O)N5CCCCCC5)CC4)cc3c(C(=O)O)c2C1 (stereo not drawn)	inactive	
Cc1ccc(/C=N/N2CCN(C3c4ccccc4-c4ccccc43)CC2)o1	active: 18.4 µM	
COc1ccc(-c2nn3c(=O)cc(CN4CCN(C(=O)/C=C/c5ccccc5)CC4)nc3s2)cc1	inconclusive: 3.26 µM [inhibitor, partial curve]	
O=C(O)C1CCCN1S(=O)(=O)c1cccc2nsnc12 (stereo not drawn)	inactive	
Cn1nc(-c2ccc(C(=O)Nc3cccc(Cl)c3)cc2)c2ccccc2c1=O	inconclusive: 7.31 µM [inhibitor, partial curve]	
O=C(CSc1cccc[n+]1[O-])NC1CCCCCCC1	inactive	
CCOc1cc(-c2ccc(OC(=O)c3ccccc3Cl)c(OC)c2)cc(=O)c2c(C)oc(C)c12	inconclusive: 18.4 µM [inhibitor, single point]	
O=C(NCc1ccccn1)C1Nc2ccc(C(F)(F)F)cc2C2C=CCC12 (stereo not drawn)	inconclusive: 2.31 µM [inhibitor, partial curve]	
CC1(c2nnc(Cc3ccccc3)o2)CC(c2cccc(F)c2)=NO1 (stereo not drawn)	inactive	
Cc1ccccc1C1CC(c2ccccc2)Nc2ncnn21 (stereo not drawn)	inconclusive: 23.1 µM [inhibitor, single point]	
CCN1CCN(Cc2ccc(NC(=O)c3cc(NC(=O)N4CCNC4=O)cc(OC)c3)cc2C(F)(F)F)CC1	active: 20.6 µM	

SMILES	Potency	activity change, negative = growth inhibition
COc1cccc(CC2(CO)CCCN(Cc3cn[nH]c3-c3ccc(F)cc3)C2)c1 (stereo not drawn)	inconclusive: 29.1 µM [inhibitor, single point]	
COc1ccc(NC(=O)c2cc(C)n(Cc3cccs3)c2C)cc1	inconclusive: 25.9 µM [inhibitor, single point]	
O=C(Nc1ccc2c(c1)OCCO2)C(c1cc2ccccc2o1)N1CCN(C/C=C/c2ccccc2)CC1 (stereo not drawn)	active: 16.4 µM	
COc1ccc(CN(C(=S)Nc2ccccc2)C2CC(=O)N(c3ccc(Cl)cc3)C2=O)cc1 (stereo not drawn)	inactive	
CCCCOC(=O)Cn1c(=O)n(CC(=O)OCCCC)c2ccccc21	inactive	
FC(F)(F)c1ccc(CN2C[C@@H]3C(c4ccccc4)C4(c5cccnc5)CC3(C4)[C@H]2c2ccccc2)cc1 (stereo partly drawn)	inconclusive: 25.9 µM [inhibitor, single point]	
CCCc1cc(=O)[nH]c(SCC(=O)NC2CCCc3ccccc32)n1 (stereo not drawn)	inactive	
O=C(COC(=O)/C=C/c1ccc2c(c1)OCO2)Nc1ccccc1	inconclusive: 25.9 µM [inhibitor, single point]	
CCCCCCN1C[C@H](O)[C@@H](n2cc(C3CC3)nn2)C[C@@H]1c1ccc(Cl)cc1	inconclusive: 29.1 µM [inhibitor, single point]	
CCOc1ccc(-c2cc(C(=O)NCc3cc(C(F)(F)F)cc(C(F)(F)F)c3)[nH]n2)c(C)c1		inconclusive: -32.3% [inhibitor]
CCN(C(=O)c1ccc(Cl)cc1[N+](=O)[O-])c1ccccc1C	active: 14.6 µM	
C=C(c1ccc2nc(NC(=O)OC)[nH]c2c1)c1cccs1	active: 0.82 µM	
S=C(NCc1ccco1)N/N=C/c1ccccc1Cl	inconclusive: 29.1 µM [inhibitor, single point]	
COc1ccccc1N1CCN(C(=O)Cn2c(=O)n3nc(-c4cccc(F)c4)nc3c3ccccc32)CC1	inactive	
COCOc1cccc(CN2CCC(C)(Oc3ccc(C(C)=O)cc3)C2)c1 (stereo not drawn)	inconclusive: 29.1 µM [inhibitor, single point]	
CSc1nsc(NC(=O)Nc2ccccc2)n1	active: 20.6 µM	
CC(C)(C)NC(=O)C(c1ccncc1)N(CC1CCCO1)C(=O)Cn1nnc(-c2ccc(F)cc2)n1 (stereo not drawn)		inconclusive: -29.7% [inhibitor]
CCN(Cc1ccccc1)C(=O)c1cccc(S(=O)(=O)N2CCN(Cc3ccccc3)CC2)c1	active: 25.9 µM	
CCC(CC)CN1C(Nc2ccccc2)=NC[C@@H]1C	inconclusive: 18.4 µM [inhibitor, single point]	
CCNC(=O)c1ccc(NC(=O)N2CCCCc3ccccc32)cc1	inconclusive: 32.6 µM [inhibitor, single point]	
CCCCC1N2CC3([N+](=O)[O-])CN1CC([N+](=O)[O-])(C2)C3(C)C (stereo not drawn)	inactive	
CC(C)c1cc(C(=O)N2CCN(C(c3ccccc3)c3ccccc3)CC2)no1	inconclusive: 25.9 µM [inhibitor, single point]	
CC(=O)Nc1cccc(Oc2nc(C(F)(F)F)nc3ccccc23)c1	inconclusive: 29.1 µM [inhibitor, partial curve, poor fit]	
CC(O)c1cccc(NC(=O)CC(c2ccccc2)c2ccccc2)c1 (stereo not drawn)	active: 9.2 µM	
N[C@@H](Cc1cc(I)c(Oc2ccc(O)c(I)c2)c(I)c1)C(=O)O	inconclusive: 21.1 µM [inhibitor, partial curve, poor fit] and inconclusive: 18.4 µM [inhibitor, partial curve]	

SMILES	Potency	activity change, negative = growth inhibition
Cc1ccc(OCc2nnc(SCC(=O)Nc3ccc4c(c3)OCCO4)n2Cc2ccco2)cc1	inconclusive: 14.6 µM [inhibitor, partial curve]	
COc1ccccc1NC(=O)c1cc(Cl)nc2ccccc12	inactive	
O=C(c1ccc(CS(=O)Cc2ccc(Cl)cc2)o1)N1CCN(c2ccccn2)CC1 (stereo not drawn)	inconclusive: 20.6 µM [inhibitor, single point]	
Cn1ccc2c(-c3ccc(C(=O)O)cc3)cc3c(c21)C1CCC3O1 (stereo not drawn)	inactive	
CC(=O)c1ccc(N2CCN(S(=O)(=O)c3ccc(-c4coc(C)n4)cc3)CC2)cc1	inactive	
CCOc1ccc(NC(=S)N(CCCN2CCOCC2)Cc2cn(C)c3ccccc23)cc1	active: 14.6 µM	
COc1ccc(-c2noc(CCC(=O)NCCCN3CCN(c4ccccc4F)CC3)n2)cc1	active: 16.4 µM	
CC(C(=O)Nc1ccc(O)cc1)c1cccc(C(=O)c2ccccc2)c1 (stereo not drawn)	active: 20.6 µM	
O=C(COc1ccc([N+](=O)[O-])cc1)Nc1cccc(C(=O)Nc2ccccc2C(=O)O)c1	inactive	
N#CC1=C(O)C(c2ccccc2)n2c1nc(=O)c1ccccc12 (stereo not drawn)		inconclusive: -2.77% [inhibitor]
Cc1cc(=O)oc2cc(O[C@@H]3O[C@H](C(=O)O)[C@@H](O)[C@H](O)[C@H]3O)ccc12	inactive	
O=C(COc1ccccc1)Nc1nnc(-c2ccc(Cl)cc2)o1	inconclusive: 32.6 µM [inhibitor, single point]	
Cc1ccc(CSc2ccc3nnc(-c4cccnc4)n3n2)cc1	active: 4.11 µM	
O=C(O)CN(c1ccccc1)S(=O)(=O)c1cc(C(F)(F)F)cc(C(F)(F)F)c1	inactive	
CCOC(=O)Cc1csc(SCC(=O)NC(C)C23CC4CC(CC(C4)C2)C3)n1 (stereo not drawn)	inconclusive: 23.1 µM [inhibitor, single point]	
CC(C)(C)NC(=O)C(c1cccc2ccccc12)n1c(=O)c(-c2ccccc2)nc2ccccc21 (stereo not drawn)	active: 0.13 µM	
O=C(CSc1nc2ccccc2c(=O)n1-c1ccccc1)N1CCCc2ccccc21	inconclusive: 18.4 µM [inhibitor, single point]	
Cc1ccc(C(=O)CSc2nnc3c4ccccc4nc(C(C)(C)C)n23)cc1	active: 11.6 µM	
COc1ccc2cc(/C=N/NC(=O)CSCc3ccc([N+](=O)[O-])cc3)c(Cl)nc2c1	inconclusive: 16.4 µM [inhibitor, partial curve, poor fit]	
COc1ccc(S(=O)(=O)NCc2nc(N3CCCC3)c3cccc(C)c3n2)cc1OC	inactive	
Cc1ccccc1Cc1c(C)nc2c(C(=O)NCc3ccc4c(c3)OCO4)cnn2c1C	inconclusive: 29.1 µM [inhibitor, single point]	
CC1CCc2c(c3ccccc3[nH]c2=O)O1 (stereo not drawn)	inactive	
CC[C@@]1(c2ccccc2)NC(=O)N(C)C1=O	inconclusive: 0.0024 µM [inhibitor, full curve, poor fit]	
